Test results: PubChem BioAssay AID1347165 (National Center for Advancing Translational Sciences (NCATS), 2019)
Values joined by “and” are separate entries in the source; they are usually repeats but may differ in a detail not shown here. Equal entries are not always repeated. Among all 220,000 compounds or so, about 5,700 (2.6%) were called active. This list was built around the results that the source calls inconclusive (neither active nor inactive); the mix of calls is not that of the screen. Calls follow the shape of the dose curve; as a rule, active = well fitted inhibition curve with a large enough effect; inconclusive = small, poorly fitted or top-dose-only effect; inactive = no such curve, though single readings can be large or run the other way. Potencies beside an inconclusive call are fits to weak or partial responses and may not hold up.

The compounds below were run against Lysine-specific demethylase 5B (Homo sapiens) (UniProt Q9UGL1) (assay: Primary screen for KDM5B Histone Demethylases FDH-coupled qHTS). Conditions: FDH-coupled NADH fluorescence (FDH is formaldehyde dehydrogenase); activity change, negative = inhibition: at 57.7 µM (top of the series) unless noted.
Method in brief: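 Measured: NADH fluorescence change, 30 min, RT. System: KDM5BΔAP 200 nM final, H3K4me3 peptide, α-KG, Fe(II), ascorbate, NAD⁺ plus FDH, pH 7.5 HEPES. Compounds: titrated, 10 min pre-incubation with enzyme.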
Also: nearly all actives have a fitted effect of over 70% in size.
For activity change, negative = inhibition in this document: 0% is about no effect.
Potency is read from the fitted curve at half-maximal effect; tags tell the direction and shape of the fitted curve.

Chain of UniProt Q9UGL1 (Q9UGL1 whole entry, looked up): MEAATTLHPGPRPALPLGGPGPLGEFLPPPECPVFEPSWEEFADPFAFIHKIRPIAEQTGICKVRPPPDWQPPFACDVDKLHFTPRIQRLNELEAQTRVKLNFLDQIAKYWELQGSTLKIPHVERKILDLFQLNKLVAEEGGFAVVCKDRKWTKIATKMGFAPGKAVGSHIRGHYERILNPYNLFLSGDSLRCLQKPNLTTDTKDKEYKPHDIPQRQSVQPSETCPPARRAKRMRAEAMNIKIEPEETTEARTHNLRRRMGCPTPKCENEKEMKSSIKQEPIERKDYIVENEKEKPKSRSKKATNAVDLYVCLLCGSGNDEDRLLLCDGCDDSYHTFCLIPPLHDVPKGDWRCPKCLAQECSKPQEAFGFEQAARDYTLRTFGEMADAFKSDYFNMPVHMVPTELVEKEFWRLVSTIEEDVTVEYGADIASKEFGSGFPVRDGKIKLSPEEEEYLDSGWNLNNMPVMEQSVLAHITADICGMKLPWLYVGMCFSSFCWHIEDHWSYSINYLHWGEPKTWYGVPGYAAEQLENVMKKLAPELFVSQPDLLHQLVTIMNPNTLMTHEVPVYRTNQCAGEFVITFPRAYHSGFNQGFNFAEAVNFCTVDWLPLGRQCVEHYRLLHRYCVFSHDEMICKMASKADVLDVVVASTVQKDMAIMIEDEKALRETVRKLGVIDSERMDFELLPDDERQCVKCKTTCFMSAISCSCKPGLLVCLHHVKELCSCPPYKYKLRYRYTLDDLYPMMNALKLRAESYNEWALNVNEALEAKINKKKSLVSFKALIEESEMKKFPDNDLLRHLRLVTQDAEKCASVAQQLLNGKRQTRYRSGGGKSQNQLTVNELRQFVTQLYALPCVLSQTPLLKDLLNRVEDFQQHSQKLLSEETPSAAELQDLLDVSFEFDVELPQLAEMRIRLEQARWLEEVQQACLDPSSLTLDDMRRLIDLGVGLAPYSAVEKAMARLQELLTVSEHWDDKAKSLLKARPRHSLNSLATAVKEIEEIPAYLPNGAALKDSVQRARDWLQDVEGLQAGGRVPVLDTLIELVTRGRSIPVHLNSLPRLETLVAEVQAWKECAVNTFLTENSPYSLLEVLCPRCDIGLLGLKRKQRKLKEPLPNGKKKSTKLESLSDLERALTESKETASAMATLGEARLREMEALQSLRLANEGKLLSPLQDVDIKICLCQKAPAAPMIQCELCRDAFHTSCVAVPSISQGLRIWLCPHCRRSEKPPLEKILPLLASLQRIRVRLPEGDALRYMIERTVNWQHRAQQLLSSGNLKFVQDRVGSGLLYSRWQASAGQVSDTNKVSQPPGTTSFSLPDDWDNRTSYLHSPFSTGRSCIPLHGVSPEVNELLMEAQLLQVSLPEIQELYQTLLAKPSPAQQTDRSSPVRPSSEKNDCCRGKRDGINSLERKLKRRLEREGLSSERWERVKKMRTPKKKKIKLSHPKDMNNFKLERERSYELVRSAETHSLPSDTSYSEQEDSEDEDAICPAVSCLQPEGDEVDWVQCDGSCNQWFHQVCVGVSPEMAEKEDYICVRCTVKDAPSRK

Row | SMILES | activity change, negative = inhibition | Potency
1 | Cc1ccc(NC(=O)Cn2ccc3sccc3c2=O)c(C)c1 | inactive: -11% | –
2 | CC(C)N1CC[C@@H]2[C@H]1C(=O)NC[C@H](CCC(=O)NCc1cccs1)N2C | – | inconclusive: 25.1 µM [inhibitor, partial curve]
3 | CC(NC(=O)C(=O)Nc1nccs1)c1ccccc1 (stereo unspecified) | – | inconclusive: 14.1 µM [inhibitor, single point]
4 | CC(C)c1ccc(/C=C(/C#N)C(=O)Nc2ccc(N3CCOCC3)cc2)cc1 | inactive: 2.37% | –
5 | O=C(Nc1ccc(Cl)cc1)C1CC(=O)N(c2n[nH]c3cccc(F)c23)C1 (stereo unspecified) | – | inconclusive: 14.1 µM [inhibitor, partial curve, poor fit]
6 | CCOC(=O)c1ccccc1NC(=O)c1c(C)oc2ncnc(N3CCOCC3)c12 | – | inconclusive: 2.51 µM [inhibitor, partial curve, poor fit]
7 | COc1ccc(CCNC(=O)c2c(C)noc2-c2ccc(C(C)(C)C)cc2)cc1OC | inactive: -29.9% | –
8 | O=C(Nc1ccc2c(N3CCCCC3)ncnc2c1)c1cc(F)cc(F)c1 | – | inconclusive: 31.6 µM [inhibitor, single point]
9 | CN(C)C(=O)C1CCc2nnc(CNC(=O)c3ccccc3)n21 (stereo unspecified) | inactive: -5.72% [at 149 µM] | –
10 | CCn1c2c(c(=O)n1-c1ccccc1)CCN(CCCc1ccccc1)C2 | – | inconclusive: 35.5 µM [inhibitor, single point]
11 | CC(C)n1c(=O)c2oc3ccccc3c2n(CC(=O)Nc2ccccc2Cl)c1=O | inconclusive: -31.3% [inhibitor] | –
12 | CC(C)Cc1nnc(C(=O)Nc2ccc(C(=O)NCCN3CCCCC3C)cc2)s1 (stereo unspecified) | inactive: 18.1% | –
13 | O=C(O)C(Sc1nccc2ccccc12)c1ccccc1 (stereo unspecified) | – | inconclusive: 17.8 µM [inhibitor, partial curve, poor fit]
14 | O=C(CCc1ncc(-c2ccccc2F)o1)Nc1ccc(N2CCOCC2)cc1N1CCOCC1 | inactive: 0.1% | –
15 | CCN(CC)CCCNc1oc(-c2ccc(OC)cc2)nc1C#N | – | inconclusive: 31.6 µM [inhibitor, partial curve, poor fit] and inconclusive: 22.4 µM [inhibitor, partial curve, poor fit]
16 | Cc1nc(CN2CCN(CC3(O)CNCCOC3)CC2)cs1 (stereo unspecified) | – | inconclusive: 11.2 µM [inhibitor, partial curve, poor fit]
17 | Cc1cccc2nc(C(=O)N3CCCC(c4[nH]ncc4-c4ccccc4)C3)cn12 (stereo unspecified) | inactive: -13.3% | –
18 | Cc1cn2nc(C(=O)N3CCC(NC(=O)Cc4c[nH]c5ccccc45)CC3)cc2c(=O)[nH]1 | – | inconclusive: 39.8 µM [inhibitor, partial curve, poor fit]
19 | CCc1nc2nc(C)cc(Nc3ccc(F)c(Cl)c3)n2n1 | – | inconclusive: 35.5 µM [inhibitor, single point]
20 | O=C1CC(c2ccc(Br)cc2)c2c(ccc3ccccc23)N1 (stereo unspecified) | – | inconclusive: 39.8 µM [inhibitor, single point]
21 | CNC(=O)CNC(=O)c1cc2ccccc2oc1=O | – | inconclusive: 39.8 µM [inhibitor, partial curve, poor fit]
22 | N#Cc1cccc(C(=O)NC2CCN(c3cc(-c4ccc(Cl)cc4)[nH]n3)C2)c1 (stereo unspecified) | – | inconclusive: 8.91 µM [inhibitor, partial curve]
23 | C=C(C)CSc1nc2sc3c(c2c(=O)n1C1CCCCC1)CCN(C)C3 | – | inconclusive: 25.1 µM [inhibitor, partial curve, poor fit]

Row | SMILES | activity change, negative = inhibition | Potency
24 | Cn1cnnc1-c1ccc(NS(=O)(=O)c2ccc3c(c2)CCC3)cc1 | inactive: -0.0089% | –
25 | COc1ccc(NC(=O)CCc2c(C)nc3cc(-c4cccc(F)c4)nn3c2C)cc1Cl | inconclusive: -35.6% [inhibitor] | –
26 | CCc1nnc2c3ccccc3nc(N3CCN(c4cc(Cl)ccc4C)CC3)n12 | inconclusive: -175% [inhibitor] [at 11.5 µM] | –
27 | CCc1cc(CNC(=O)C2CCN(c3nc(-c4ccccc4)nc4c3CCC4)CC2)on1 | – | inconclusive: 35.5 µM [inhibitor, single point]
28 | O=C(CCSc1nnc(NC2CC2)s1)Nc1ccc(Cl)cc1F | inactive: -2.4% | –
29 | CCOC(=O)c1cnc(Nc2ccccc2C)c2ccccc12 | inactive: -28.1% | –
30 | Cn1cnc2ccc(-c3ccsc3)nc2c1=O | – | active: 35.5 µM
31 | COCC1CN(C(=O)CCCc2ccccc2)CC12CCNCC2 (stereo unspecified) | – | inconclusive: 22.4 µM [inhibitor, single point]
32 | COc1ccc2c(c1)c(CN1CCCC(c3nc(C(C)C)no3)CCNC(=O)CC1)cn2C(C)C (stereo unspecified) | inactive: -21.6% | –
33 | CN(CCC(C)(C)O)c1ccc(C(=O)N2CCCCC2CCn2cccn2)cn1 (stereo unspecified) | – | inconclusive: 12.6 µM [inhibitor, single point]
34 | Cc1ccc(-c2nn(CC(=O)NC3CC3)c(=O)c3ccccc23)cc1 | inactive: 4.43% | –
35 | CSc1ccc(C2C(C#N)=C(N)Oc3c2ccc2ccccc32)cc1 (stereo unspecified) | – | inconclusive: 15.8 µM [inhibitor, single point]
36 | O=C(c1cccs1)N1CCC(Cc2nc(C3CC3)n[nH]2)CC1 | inactive: -21.4% | –
37 | COC(=O)c1cc2sccc2n1Cc1nc(-c2ccc(C)cc2)oc1C | inconclusive: -34.5% [inhibitor] | –
38 | CCN(c1ccc(-c2csc(C)n2)cc1)S(C)(=O)=O | inactive: 20.5% | –
39 | CCc1nn2c(ncc3c(=O)n(CCN4CCOCC4)ccc32)c1-c1ccc(Cl)cc1 | inactive: -0.01% | –
40 | CCc1ccccc1NC(=O)c1ccc2c(c1)c(C)c(C)n2Cc1ccccc1 | – | inconclusive: 35.5 µM [inhibitor, single point]
41 | CN(Cc1ccc2nsnc2c1)Cc1cn(-c2ccccc2)nn1 | inactive: -16.9% | –
42 | CN1c2cc(C(=O)Nc3ccc(Cl)cc3)ccc2C(=O)N2CCCCCC21 (stereo unspecified) | – | inconclusive: 31.6 µM [inhibitor, partial curve, poor fit]
43 | CCOC(=O)CC(NC(=O)c1cc2ccccc2oc1=O)c1ccccc1Cl (stereo unspecified) | inactive: -16.8% | –
44 | CC(=O)Nc1ccc2nc(SCCOc3ccccc3Cl)sc2c1 | – | inconclusive: 25.1 µM [inhibitor, partial curve, poor fit]
45 | Cc1nc(CCNC(=O)CC2C(=O)NCCN2Cc2ccccc2F)sc1C (stereo unspecified) | inactive: -10.5% | –
46 | CCC(C)NC(=O)c1ccc(CNC(=O)C2CCCC2)cc1 (stereo unspecified) | inactive: 21.3% | –
